± gives the standard deviation of the averaged measurements. This is one part of the list.
Tested on: PfAP2-I AP2 domain 3 (GST-tagged)
Test: gcPBM binding intensity (ln(normalized median fluorescence intensity)); higher = stronger DNA binding
Method in brief: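 GST-tagged P. falciparum DNA-binding domains produced in E. coli were incubated for 1 h on an Agilent 4 × 180k array of primer-extended double-stranded 36-bp intergenic genomic probes with negative controls. Binding intensity is the highest Masliner-normalised natural-log median intensity across replicate spots of either probe orientation, with bound protein detected by Alexa488 anti-GST antibody at 488 nm.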

Point of comparison: “TCTCCATCTTATGAGACATGCACTTTTTATTTAATA [TGCATGCA_site121]”, “gcPBM binding intensity (ln)” value 8.35 ± 0.64. Against it:
- AAAAAAAAAAAACACACACACAAAAAAAAATATATA [CACACA_site1105] — within error, 7.81 ± 0.17
- AAGCTACACATAGATTATTATTAATTTAATGTATAT [CACACA_negctrl_site548] — within error, 7.22 ± 0.57
- TACGTGAAATTATATACACACATAAATATGTCTGTA [CACACA_site3122] — within error, 7.43 ± 0.42
- AATTATTAGCGTGGTGTGCACAAAATTATGGACACA — higher, 9.84 ± 0.2
- ACAAGCTTTCATAAGGTGCAATGATTTAACAAAAAA [GTGCAC_site9726] — higher, 10.2 ± 0.16
- ACACATGACATCCGTTGTACAATCATCATAAAAATG [XGTACX_site5397] — within error, 8.24 ± 0.72
- AGCATTTATGAAAAATGTACACACATCAAATGCTTA [XGTACX_site8749] — within error, 7.7 ± 0.38
- TATAAAAATAATATTACACACATGTAAAATGTCGGT [CACACA_site3264] — within error, 7.71 ± 0.49
- TGTAGAAATGGGTGCACACACATATATAATATATAT [CACACA_site2507] — higher, 10.3 ± 0.45
- AACTCATCTTATAATTGTACATATTTATAAAAAGTA [XGTACX_site6522] — within error, 7.83 ± 0.47
- TTAGGGATGCTGAAATGTACACATTTAAATTATATA [XGTACX_site3000] — within error, 7.91 ± 0.26
- AAAAAAAAAAAAAAAAAAAAAAAAAAAAAATATATA [GTGCAC_negctrl_site6] — higher, 10.2 ± 0.17
- AATGTAAAACTAATATGTACATATCTCTAAAGAAAT [XGTACX_site8429] — within error, 7.78 ± 0.51
- ATTGTCTTCCTTCTGGTGCGATGTATAGGTAAAGAT — within error, 8.94 ± 0.19
- CGTACTAACATAAAGACACACACCACATATAATAAA [CACACA_site3603] — within error, 7.96 ± 0.53
- CCATAAAAAGGTACATGTACAAAAAGCAAAAATATG [XGTACX_site5543] — within error, 8.31 ± 0.69
- ATATTTTTCCAACATCGTACATTATGAGTCAAAATT [XGTACX_site993] — within error, 8.08 ± 0.54
- CCCATATTATAGGTGTGTACATAAAAGTATATATAA [XGTACX_site3629] — within error, 8.03 ± 0.57
- AGAAGAAATATGTAAAAAATTTTATATTCACACACA [GTGCAC_negctrl_site441] — within error, 8.15 ± 0.33
- AATTTAATTTTTTCGTGTACTTATATAGGAGGTTTT [XGTACX_site8310] — within error, 7.93 ± 0.66
- CAATTAAAGATATGAACACACATGTGAACTTTCTAT [CACACA_site7796] — within error, 7.43 ± 0.68
- TTTCTTATCAACCTTTTTTTTTTTTTTTTATTCTTA [TGCATGCA_negctrl_site162] — within error, 7.43 ± 0.73
- TTTATATATAATGTTGCATGTCAAATTTGTATATGG [TGCATGCA_site246] — within error, 7.77 ± 0.57
- TGTTCTTATACTAATAGTACTTTTAGGTACTATAAA [XGTACX_site2954] — within error, 7.6 ± 0.44
- TGTAGACATTAATGTAGTACAATATATATATATATT [XGTACX_site8608] — within error, 7.92 ± 0.43
- AAAAAAAAAAAAAAAACACACATACCCATATATTTT [CACACA_site6013] — within error, 8.78 ± 0.54
- ATGATATGCAATTTAGTGCATAACAAAATTGGTATA — higher, 10.9 ± 0.49
- TTGTGTAAATGTTAAGTGCATTTGGTAAAATATAAA [GTGCAC_site9699] — higher, 9.51 ± 0.11
- TTTTTCTTTTTTTGGGGTACAGGGAAATCTATATTT [XGTACX_site7025] — the same, 8.35 ± 0.5
- TCTTAATTTTTGAAGGTACACACTAATATATTAAAT [CACACA_site1191] — within error, 7.94 ± 0.33
- TGTGTATACTTGTGTATACCAAATTAAAGACGCTTT [CACACA_negctrl_site1359] — within error, 7.42 ± 0.67
- AAAAAATAAAAAAGGTGGTCATGTCACAAATACTTT [XGTACX_site7454] — within error, 8.03 ± 0.57
- TAAAAGTGATATGTTCGTACGTATTTATATGTAATA [XGTACX_site211] — within error, 7.72 ± 0.48
- GTATATATATATATATATATATATATATATATATAT [CACACA_negctrl_site609] — within error, 9.12 ± 0.59
- ATATATGCATATATATGTACATATATATATATATAT [XGTACX_site7403] — within error, 9.09 ± 0.4
- AATAAATAAAAAATTACACACATATATATAAATATA [CACACA_site3434] — within error, 7.58 ± 0.25
- TAAATTATAAATTGCACACATATTTTTATATTTATA [CACACA_site2976] — within error, 8.47 ± 0.16
- ATATTTTTAGATTCAGAAAAAAGATTCAACTTACTC [CACACA_negctrl_site1357] — within error, 7.52 ± 0.47
- TATTTCATATGAAGAAGTACTATTAATAATTTCCTT [XGTACX_site6587] — within error, 7.66 ± 0.38
- TTCTTTTTTCGACACACACACACAAGAAGATATATA [CACACA_site7456] — within error, 8.44 ± 0.3
- ATATATATATATAATACACACTTATGAAATGTCTAA [CACACA_site5077] — within error, 9.18 ± 0.33
- TTAATACATACATTCACACACACTAATTGTATATTT [CACACA_site9362] — within error, 8.06 ± 0.55
- ATACGAATAAATTTCGCATGCAGCATATATATCAAT [TGCATGCA_site612] — within error, 7.8 ± 0.62
- TGTACAAATATGTTGAAAATAAAATTTCAATATATT [XGTACX_negctrl_site13] — within error, 7.37 ± 0.7
- AACGAAAATAAGAAAAGTACAAAAAATACCAAATAA [XGTACX_site6171] — within error, 7.96 ± 0.74
- ATATATATATATATATGTACATATATATTGTTGATC [XGTACX_site8893] — within error, 9.54 ± 0.63
- ATTTAATTCGTACATACACACGCACATATATATATA [CACACA_site8415] — higher, 9.38 ± 0.11
- ACATATTATTCAAGTGCACACTTTATATTTATGATT [CACACA_site3295] — higher, 9.715 ± 0.035
- AAAAAAAAACAGAAAACACACAAATTATCTTAGAAT [CACACA_site309] — within error, 7.49 ± 0.73
- TACAATAATGATTGTTGTACATTATTGATATTTAAA [XGTACX_site2940] — lower, 7.47 ± 0.23
- TTTAATTTTTAATCAGTGCAATATTATATAATATAT — higher, 10.5 ± 0.57
- TATATGAAATATTATGCACACAATATATAATATGAT [CACACA_site936] — higher, 9.86 ± 0.59
- AATAATTCATCATATGCACACACAATACCAAAATGT [CACACA_site7945] — within error, 8.69 ± 0.37
- TCATTTTAATTAAAAGTGCAAAAAATAATATAACTA [GTGCAC_site9968] — higher, 9.9 ± 0.18
- ATTAATTCGTTTTGTACACACATAATGAATAATTTA [CACACA_site2235] — within error, 7.73 ± 0.41
- CAAAAATAATAGAATACATGCAAAAATAAATGTATA [TGCATGCA_site196] — within error, 7.59 ± 0.71
- TTTTTTTTTAAAACATAATAAAAAATAAAACAACCT [GTGCAC_negctrl_site92] — within error, 8.32 ± 0.34
- ATAATATATTTAATCATACACACATTTATGTACCTA [CACACA_site1719] — within error, 7.7 ± 0.57
- AAAAATAAAGGGTGTGCACACAAAAATATATATATA [CACACA_site1727] — higher, 9.8 ± 0.14
- TAATGACAATAAAAATAAATAAATAAAAAAAAAAAA [TGCATGCA_negctrl_site321] — within error, 7.89 ± 0.92
- AATAAATAAATAAATAAATAAATATATATATATATA [GTGCAC_negctrl_site330] — within error, 9.23 ± 0.49
- ATATATTATCTGTACACACACATATAAGGGATTATA [CACACA_site4180] — within error, 8.19 ± 0.35
- AAGAAAATAAAAAGGTAAATATGTATAAATAAATAA [TGCATGCA_negctrl_site88] — within error, 7.51 ± 0.83
- TGAAATAAAATTATTTGTACATATCGGAAAAAAAAA [XGTACX_site7131] — within error, 7.87 ± 0.61
- TTTTTTGAAAATAAATGTACGAATTTTATATTTAAA [XGTACX_site2768] — within error, 7.58 ± 0.31
- AAGGCATATATAATTTGTACATATTAAGAATTAGAT [XGTACX_site8660] — within error, 8 ± 0.54
- AAATTACCCATCCATACACACATATTTTTTTTAATT [CACACA_site2189] — within error, 7.96 ± 0.64
- GATACAGATGGACACACACACATACATAAATACATA [CACACA_site5833] — within error, 8.13 ± 0.28
- TAAATATATTTATAAGCACACACTAATAAACCCACA [CACACA_site390] — within error, 8.84
- AATTTTTATACGGATACACACAAAAAAAAATAAAAA [CACACA_site897] — within error, 7.89 ± 0.54
- AAAATATATTATTATTGTACATATATTTTCATTTAC [XGTACX_site4593] — within error, 8.15 ± 0.13
- TTTATTTTGTTTATGGTGCATTTTATGTAAATATAT — higher, 10.3 ± 0.51
- TATATATATTTATAATGTACACATATATGTAAATAT [XGTACX_site3695] — within error, 7.97 ± 0.29
- TGCCCTAACCATACTACACACACTGCTCAAAATAGT [CACACA_site2219] — within error, 8.4 ± 0.54
- TACAATATAAAATACACACACACAAACATATATTTA [CACACA_site5941] — within error, 7.78 ± 0.49
- ATAATTATATACCATGCACACAAATATTCATACAGG [CACACA_site9343] — within error, 8.29 ± 0.56
- AAGAACCATATTTAAACACACATACCTATATAAATA [CACACA_site7553] — within error, 7.68 ± 0.53
- AAAAAATACATACATACACACATATTTATTTATATA [CACACA_site6554] — within error, 7.67 ± 0.42
- TTATGCATATATTATGCATGTAGTTTTAAATCACAT [TGCATGCA_site104] — within error, 7.84 ± 0.71
- TATATACACATTTTTATACACACTTGTTTTATAAAA [CACACA_site8139] — within error, 7.87 ± 0.38
- GCACAAATATATATATATATATATATATATATATAT [GTGCAC_negctrl_site661] — within error, 9.07 ± 0.54
- AATATATATATAAATAATATACCTATATATTTTTTG [XGTACX_negctrl_site407] — lower, 7.28 ± 0.4
- AAAAACAATTTAATCACACATATATGTCACAAAGAT [CACACA_site5043] — within error, 7.91 ± 0.77
- CACTTAAAAAGCTAACGTACAAATACACATATATAA [XGTACX_site1851] — within error, 7.87 ± 0.37
- ATATTAAATATTATCACACACATAATTATTTCCATA [CACACA_site2334] — within error, 8 ± 0.42
- CAAAATATTTTTTCCTGTACATAATTCCTATTTCAC [XGTACX_site3590] — within error, 7.92 ± 0.85
- ATATAATAATATGGTTGTACATAAATAACACATGAA [XGTACX_site6592] — within error, 7.98 ± 0.31
- ATATATATATATATATGTACATACATATTGTTTGGT [XGTACX_site2284] — higher, 9.37 ± 0.31

— the supplement of paper PMC11417369
